pIC50: −log10 of the molar value. IC50 is the fitted dose that halves viability relative to control wells, and lower means more sensitive; fits outside the tested doses are given as limits. AUC, from the same fit, is the share of area under the viability curve across the 256-fold dose range; values near 1 show little effect. For some assays here: An inferred top dose is not printed in the source and was worked back from the curve model.
Key:
Assay in all cases: Viability of human cancer cell lines after 72 h of drug (GDSC screen)
[1] = compound: Cn1cc(/C=C2\C(=O)Nc3cccnc32)c2ccccc21 [GW 441756]; conditions: top dose 2 µM; top dose inferred
Procedure: (§1)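 Human cancer cell lines in 384-well plates, medium with 10% serum, drug for 72 h over a 256-fold dose range (nine 2-fold or five 4-fold steps up to the top dose). Adherent lines were fixed and stained with the nucleic acid dye Syto60, suspension lines read with resazurin; signal relative to control wells, capped at 0 and 100%. One two-parameter sigmoid per drug and line, fitted in a mixed model over all curves with the slope shared within a line.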

[2] = compound: COc1cc(/C=C/C(=O)N2CCC=CC2=O)cc(OC)c1OC [piperlongumine]; conditions: top dose 10 µM
Procedure: as §1

[3] = compound: CC1(C)CCC(c2ccc(Cl)cc2)=C(CN2CCN(c3ccc(C(=O)NS(=O)(=O)c4ccc(N[C@H](CCN5CCOCC5)CSc5ccccc5)c(S(=O)(=O)C(F)(F)F)c4)cc3)CC2)C1 [ABT-263]; conditions: top dose 2 µM; top dose inferred
Procedure: as §1

[4] = compound: CC(=O)Nc1nc(C)c(-c2ccc(Cl)c(S(=O)(=O)NCCO)c2)s1 [PIK-93]; conditions: top dose 20 µM
Procedure: as §1

Row | Cell Line | AUC [1] | pIC50 [1] | AUC [2] | pIC50 [2] | AUC [3] | pIC50 [3] | AUC [4] | pIC50 [4]
1 | CAL-27 (head and neck, adherent) | 0.972 | < 5.70 | 0.713 | 5.60 | 0.96 | < 5.70 | 0.881 | < 4.70
2 | H2795 (mesothelioma, adherent) | 0.885 | < 5.70 | 0.836 | 5.19 | 0.97 | < 5.70 | 0.682 | 5.40
3 | CHSA0011 (chondrosarcoma, adherent) | 0.897 | < 5.70 | 0.814 | 5.07 | 0.975 | < 5.70 | 0.923 | < 4.70
4 | H2595 (mesothelioma, adherent) | 0.94 | < 5.70 | 0.84 | < 5.00 | 0.88 | < 5.70 | 0.969 | < 4.70
5 | NCI-H460 (large cell lung carcinoma, adherent) | 0.933 | < 5.70 | 0.939 | < 5.00 | 0.99 | < 5.70 | 0.923 | < 4.70
6 | ESS-1 (endometrium, adherent) | 0.99 | < 5.70 | 0.79 | 5.40 | 0.892 | 5.71 | 0.989 | < 4.70
7 | HARA (lung squamous cell carcinoma, adherent) | 0.945 | < 5.70 | 0.978 | < 5.00 | 0.922 | < 5.70 | 0.753 | 5.11
8 | NCI-H661 (large cell lung carcinoma, adherent) | 0.924 | < 5.70 | 0.802 | 5.21 | 0.873 | < 5.70 | 0.808 | 4.88
9 | WM1552C (melanoma, adherent) | 0.987 | < 5.70 | 0.842 | 5.15 | 0.946 | < 5.70 | 0.986 | < 4.70
10 | DoTc2-4510 (cervix, adherent) | 0.962 | < 5.70 | 0.8 | 5.34 | 0.872 | 5.76 | 0.948 | < 4.70
11 | SK-MG-1 (glioma, adherent) | 0.932 | < 5.70 | 0.783 | 5.37 | 0.942 | < 5.70 | 0.824 | 4.92
12 | HO-1-u-1 (head and neck, adherent) | 0.979 | < 5.70 | 0.767 | 5.45 | 0.948 | < 5.70 | 0.963 | < 4.70
13 | NCI-H1688 (small cell lung carcinoma, adherent) | 0.986 | < 5.70 | 0.927 | < 5.00 | 0.715 | 6.26 | 0.737 | 5.19
14 | CAL-62 (thyroid, adherent) | 0.977 | < 5.70 | 0.628 | 5.86 | 0.983 | < 5.70 | 0.874 | 4.75
15 | PC-14 (lung adenocarcinoma, adherent) | 0.99 | < 5.70 | 0.834 | 5.26 | 0.987 | < 5.70 | 0.899 | < 4.70
16 | SW948 (large intestine, adherent) | 0.937 | < 5.70 | 0.909 | < 5.00 | 0.965 | < 5.70 | 0.89 | < 4.70
17 | GMS-10 (glioma, adherent) | 0.986 | < 5.70 | 0.694 | 5.66 | 0.971 | < 5.70 | 0.941 | < 4.70
18 | T47D (breast, adherent) | 0.893 | < 5.70 | 0.755 | 5.28 | 0.971 | < 5.70 | 0.439 | 6.11
19 | SNU-81 (large intestine, adherent) | 0.98 | < 5.70 | 0.798 | 5.17 | 0.979 | < 5.70 | 0.963 | < 4.70
20 | NCC021 (kidney, adherent) | 0.967 | < 5.70 | 0.817 | 5.17 | 0.819 | 5.86 | 0.766 | 5.07
21 | Saos-2 (osteosarcoma, adherent) | 0.98 | < 5.70 | 0.763 | 5.29 | 0.961 | < 5.70 | 0.981 | < 4.70

Row | Cell Line | AUC [1] | pIC50 [1] | AUC [2] | pIC50 [2] | AUC [3] | pIC50 [3] | AUC [4] | pIC50 [4]
22 | A375 (melanoma, adherent) | 0.962 | < 5.70 | 0.593 | 5.97 | 0.974 | < 5.70 | 0.814 | 5.07
23 | 8305C (thyroid, adherent) | 0.98 | < 5.70 | 0.772 | 5.29 | 0.964 | < 5.70 | 0.847 | < 4.70
24 | HCC-78 (lung adenocarcinoma, adherent) | 0.983 | < 5.70 | 0.889 | < 5.00 | 0.972 | < 5.70 | 0.839 | 4.77
25 | KMRC-1 (kidney, adherent) | 0.986 | < 5.70 | 0.797 | 5.30 | 0.987 | < 5.70 | 0.899 | < 4.70
26 | AsPC-1 (pancreas, adherent) | 0.958 | < 5.70 | 0.777 | 5.12 | 0.906 | < 5.70 | 0.836 | < 4.70
27 | BICR10 (head and neck, adherent) | 0.931 | < 5.70 | 0.844 | 5.05 | 0.753 | 6.12 | 0.953 | < 4.70
28 | HCC-827 (lung adenocarcinoma, adherent) | 0.955 | < 5.70 | 0.788 | 5.29 | 0.86 | < 5.70 | 0.944 | < 4.70
29 | COR-L321 (lung, suspension) | 0.98 | < 5.70 | 0.954 | < 5.00 | 0.841 | 5.86 | 0.803 | 5.00
30 | PANC-04-03 (pancreas, adherent) | 0.978 | < 5.70 | 0.778 | 5.16 | 0.961 | < 5.70 | 0.939 | < 4.70
31 | HuO-3N1 (osteosarcoma, adherent) | 0.978 | < 5.70 | 0.848 | < 5.00 | 0.978 | < 5.70 | 0.844 | < 4.70
32 | FLO-1 (oesophagus, adherent) | 0.861 | < 5.70 | 0.802 | 5.11 | 0.875 | < 5.70 | 0.681 | 5.29
33 | SF295 (glioma, adherent) | 0.982 | < 5.70 | 0.779 | 5.35 | 0.937 | < 5.70 | 0.837 | 4.83
34 | SK-GT-4 (oesophagus, adherent) | 0.907 | < 5.70 | 0.83 | 5.07 | 0.872 | < 5.70 | 0.75 | 5.10
35 | LOU-NH91 (lung squamous cell carcinoma, adherent) | 0.944 | < 5.70 | 0.786 | 5.33 | 0.861 | 5.71 | 0.951 | < 4.70
36 | PEO1 (ovary, adherent) | 0.85 | 5.79 | 0.754 | 5.46 | 0.953 | < 5.70 | 0.812 | 4.95
37 | NCI-H630 (large intestine, adherent) | 0.986 | < 5.70 | 0.916 | < 5.00 | 0.915 | < 5.70 | 0.95 | < 4.70
38 | NCI-H1944 (lung adenocarcinoma, adherent) | 0.809 | 5.95 | 0.921 | < 5.00 | 0.956 | < 5.70 | 0.76 | 5.12
39 | HT-115 (large intestine, adherent) | 0.981 | < 5.70 | 0.838 | 5.23 | 0.991 | < 5.70 | 0.979 | < 4.70
40 | D-423MG (glioma, adherent) | 0.98 | < 5.70 | 0.712 | 5.54 | 0.973 | < 5.70 | 0.53 | 5.81
41 | RCC-JF (kidney, adherent) | 0.932 | < 5.70 | 0.744 | 5.46 | 0.934 | < 5.70 | 0.812 | 4.90
42 | SCC-9 (head and neck, adherent) | 0.979 | < 5.70 | 0.82 | 5.10 | 0.916 | < 5.70 | 0.706 | 5.25

Row | Cell Line | AUC [1] | pIC50 [1] | AUC [2] | pIC50 [2] | AUC [3] | pIC50 [3] | AUC [4] | pIC50 [4]
43 | JHH-7 (liver, adherent) | 0.939 | < 5.70 | 0.676 | 5.73 | 0.953 | < 5.70 | 0.955 | < 4.70
44 | CP50-MEL-B (melanoma, adherent) | 0.988 | < 5.70 | 0.792 | 5.35 | 0.937 | < 5.70 | 0.765 | 5.14
45 | SAS (head and neck, adherent) | 0.972 | < 5.70 | 0.701 | 5.61 | 0.962 | < 5.70 | 0.889 | < 4.70
46 | KYM-1 (rhabdomyosarcoma, adherent) | 0.944 | < 5.70 | 0.685 | 5.73 | 0.987 | < 5.70 | 0.951 | < 4.70
47 | H3118 (head and neck, adherent) | 0.968 | < 5.70 | 0.749 | 5.46 | 0.922 | < 5.70 | 0.778 | 5.05
48 | NCI-H28 (mesothelioma, adherent) | 0.98 | < 5.70 | 0.716 | 5.50 | 0.977 | < 5.70 | 0.919 | < 4.70
49 | LNZTA3WT4 (glioma, adherent) | 0.931 | < 5.70 | 0.641 | 5.82 | 0.989 | < 5.70 | 0.877 | 4.71
50 | SKN-3 (head and neck, adherent) | 0.967 | < 5.70 | 0.696 | 5.61 | 0.941 | < 5.70 | 0.916 | < 4.70
51 | Ca9-22 (head and neck, adherent) | 0.989 | < 5.70 | 0.573 | 6.01 | 0.949 | < 5.70 | 0.825 | 4.96
52 | C-4-I (cervix, adherent) | 0.897 | < 5.70 | 0.644 | 5.79 | 0.944 | < 5.70 | 0.958 | < 4.70
53 | RKN (ovary, adherent) | 0.982 | < 5.70 | 0.769 | 5.40 | 0.979 | < 5.70 | 0.842 | 4.82
54 | A427 (non-small cell lung carcinoma, adherent) | 0.97 | < 5.70 | 0.834 | 5.18 | 0.814 | 5.95 | 0.91 | < 4.70
55 | TOV-112D (ovary, adherent) | 0.967 | < 5.70 | 0.807 | 5.28 | 0.848 | 5.82 | 0.751 | 5.18
56 | AU565 (breast, adherent) | 0.72 | 6.24 | 0.782 | 5.33 | 0.944 | < 5.70 | 0.753 | 5.13
57 | HeLa (cervix, adherent) | 0.943 | < 5.70 | 0.635 | 5.84 | 0.986 | < 5.70 | 0.945 | < 4.70
58 | KYSE-220 (oesophagus, adherent) | 0.976 | < 5.70 | 0.85 | 5.08 | 0.985 | < 5.70 | 0.869 | < 4.70
59 | HOS (osteosarcoma, adherent) | 0.989 | < 5.70 | 0.637 | 5.86 | 0.984 | < 5.70 | 0.992 | < 4.70
60 | Hs633T (fibrosarcoma, adherent) | 0.983 | < 5.70 | 0.713 | 5.66 | 0.985 | < 5.70 | 0.76 | 5.23
61 | SW13 (adrenal gland, adherent) | 0.985 | < 5.70 | 0.644 | 5.80 | 0.983 | < 5.70 | 0.988 | < 4.70
